PubChem BioAssay AID743279 (National Center for Advancing Translational Sciences (NCATS), 2014)
Values joined by “and” are separate entries in the source; they are usually repeats but may differ in a detail not shown here. Identical values can stand only once. The campaign covered roughly 360,000 compounds. About 17,000 (4.7%) were called active. Inconclusive results, whose numbers are uncertain, are shown with a selection of clear calls. Rule as the data show it: active = activity change below about -50%; inconclusive = mostly about -30% to -49%; inactive = weaker than that.

Assay: qHTS for Inhibitors of Inflammasome Signaling: IL-1-beta AlphaLISA Primary Screen
Conditions: THP-1 LPS/ATP IL-1B secretion, 16 h; at 57.5 µM, hits give low values
How it was run: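 Secreted IL-1B measured by AlphaLISA bead assay after 16 h compound exposure of THP-1 cells; compounds (final up to 57.5 uM) added 1 h before LPS (250 ng/mL) and ATP (1.25 mM) stimulation; lower signal means less secretion.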
% is scaled to controls: 0 for no effect and ±100 for the full control effect.

Activity change, inactive:
COc1cc2[nH]c(=S)n(N(C(C)=O)C(C)=O)c(=O)c2cc1OC 27.2%
COc1ccc(C(=O)/C=C/Nc2c(C)n(C)n(-c3ccccc3)c2=O)c(OC)c1 -25.2%
COc1ccc(S(=O)(=O)N2CCN(C(=O)CC(C)C)CC2)cc1 10.1%
CCn1c(=O)cc(SCC(=O)Nc2ccc3c(c2)OCO3)c2ccccc21 -20%
Cc1ccc(S(=O)(=O)N/N=C/c2ccccc2F)cc1[N+](=O)[O-] -6.16%
Cc1ccc(CN2CC(C(=O)Nc3ccc(S(=O)(=O)N4CCCCC4)cc3)CC2=O)cc1 (stereo not given) -10.6%
Cc1cccc(CSCC(=O)N2CCN(S(=O)(=O)c3ccccc3C#N)CC2)c1 6.94%
CCc1ccc(N2CC(C(=O)N/N=C/c3cc([N+](=O)[O-])ccc3O)CC2=O)cc1 (stereo not given) 165%
Cc1cccc(NC(=O)C(=O)NCc2ccccn2)c1 -24.3%
COc1ccc(CNC(=O)COC(=O)c2nc3nc(C)cc(C)n3n2)cc1 29.7%
Cc1cc(C)cc(N(CC(=O)Nc2cccc(C)n2)S(=O)(=O)c2c(C)noc2C)c1 -28.1%
O=C(Cc1ccc(Br)cc1)OCC(=O)N1CCOCC1 17.5%
Cc1ccc2nc(C)c(Cl)c(=O)n2c1 -3.08%
COc1cc(OC)cc(C(=O)N[C@H](C(=O)OCC(=O)c2c[nH]c3ccccc23)C(C)C)c1 15.7%
COC(=O)c1c(NC(=O)CSc2n[nH]c(N)n2)sc(C)c1C -11%
O=C(CSc1nc2ncccc2[nH]1)Nc1ccccc1-c1ccccc1 10.8%
OCC[C@@H]1C[C@H](O)[C@@H](O)[C@@]2(OCCCc3cc(Cl)ccc32)O1 -18.7%
O=C(/C=C/c1cccc(Cl)c1)NCc1ccccc1 10.6%
Cc1nn(-c2ccccc2)c(-c2ccccc2[N+](=O)[O-])c1CC#N 9.57%
CCOc1cc(/C=C2\SC(=Nc3ccc(CC)cc3)NC2=O)ccc1OCC(=O)O 17.7%
CC(=O)N1CCc2cc(S(=O)(=O)NCCC(=O)NCCc3ccccc3)ccc21 28.7%
O=S(=O)(NCc1cn2ccsc2n1)c1ccc2c(c1)OCCO2 30.4%
O=S(=O)(Nc1ccncc1)c1ccc(Cl)c(Cl)c1 4.19%
CCOC(=O)c1ccc(S(=O)(=O)Nc2ccc(N3CCOCC3)cc2)cc1 0.815%
CCc1ccccc1NC(=O)N1CCC(NC(=O)C(Cc2ccccc2)NC(C)=O)CC1 (stereo not given) 20.4%
CCOC(=O)CC(=O)CSc1nc(-c2cccnc2)cc(C)c1C#N 15.5%
CCCc1nc2oc3c(NCCOCCO)ncnc3c2c2c1COC(C)(C)C2 -8.71%
Cc1c(C(=O)NCCCN2CCOCC2)sc2nc(-c3ccc(F)cc3)cn12 -14%
O=C1C=C(c2n[nH]nc2-c2ccccc2)C[C@@H](c2ccc(F)cc2)C1 -18.1%
NC(=NCCc1ccccc1)c1cccc([N+](=O)[O-])c1 -21.9%

Activity change, inconclusive:
C=CCc1c(C)nc2c(C)cccc2c1SC(=N)N -37%
COc1ccccc1/C=C/C(=O)N1CCN(S(=O)(=O)c2cccs2)CC1 -45%
Cc1ccc(C)c(NC(=O)c2cc(-c3cc(C)ccc3O)n[nH]2)c1 -32.8%
CCN1CCc2c(sc(NC(=O)COc3ccccc3)c2C(=O)OC)C1 -41.5%
C=CC[C@@H](CC(=O)N(CCO)Cc1ccccc1)C(=O)N[C@H](COC(=O)[C@@H](CC=C)Cc1ccc(F)cc1)c1ccccc1 -41.7%
COc1ccc(/C=N/OC(=O)Nc2ccc(Cl)cc2)c(OC)c1 -44.8%
Cc1[nH]c2ccccc2c1/C=N/NC(=O)c1cc(-c2cccs2)[nH]n1 -40.8%
CNC[C@H](O)c1ccc(O)c(O)c1 -31.7%
O=C(CSc1nc(O)c(C(c2ccccc2)c2ccccc2)c(=O)[nH]1)N1CCOCC1 -30.1%
c1ccc(COn2nnc3ccccc32)c(COn2nnc3ccccc32)c1 -48.4%
CC(C(=O)NC1CCCC1)N(Cc1ccc2c(c1)OCO2)C(=O)c1snc(C(N)=O)c1N (stereo not given) -43.1%
CCCc1ccc(OCC(O)CN2CCN(c3ccccc3)CC2)cc1 (stereo not given) -47.9% and -46.9%
COc1ccc(-c2nnc(NC(=O)C3CCCO3)s2)cc1 (stereo not given) -35.1%
Cc1oc2cc3oc(=O)c(CCC(=O)NCCCN4CCOCC4)c(C)c3cc2c1C -42.2%
C#CCOCCOCCOCCNc1nc(N2CCOCC2)nc(N2CCN(C(=O)[C@H](Cc3cc4ccccc4[nH]3)n3cc([C@@H](N)C(C)CC)nn3)CC2)n1 (stereo not given in full) -43.2%
CN(C)c1ccc(/C=N/OC(=O)Nc2ccccc2)cc1 -44.5%
CCCN1CCN(c2ncnc3scc(C4COc5ccccc5O4)c23)CC1 (stereo not given) -39.2%
Cc1cc(C)c2c(CN3CCN(C/C=C/c4ccccc4)CC3)cc(=O)oc2c1 -40.9%
COc1ccc(-c2csc(N(CCCN(C)C)C(=O)c3ccccc3F)n2)cc1 -40%
CCOC(=O)[C@H]1[C@H]2COc3ccc(Cl)cc3[C@@H]2N2C(=O)c3cc(Br)ccc3NC(=O)[C@@]12C -48.1%
CCN1C(=O)C(CC(=O)Nc2ccc(F)cc2)N(CCCN2CCN(c3ccc(F)cc3)CC2)C1=S (stereo not given) -36.3%
CCCN(CCC)c1nc(N)nc(-c2cc(Cl)ccc2OC)n1 -49.6%
COCCn1nc2cc(C(=O)NCc3cc(C(F)(F)F)cc(C(F)(F)F)c3)ccc2c1OC -31.7%
COc1ccc(-c2nc(CN3CCC(C(=O)N4CCc5ccccc54)CC3)c(C)o2)cc1OC -33.4%
CS(=O)(=O)N(CC(=O)N1CCN(c2ccccc2F)CC1)c1cccc(C(F)(F)F)c1 -42.1%
CCOc1ccc(Br)cc1CNc1ccc2c(c1)OCCO2 -35.6%
CCO[C@@H]1OC(C(=O)NCc2ccccc2)=C[C@H](c2csc3ccccc23)[C@H]1CCCO -37.8%
COC(=O)c1c(NC(=O)c2ccccc2C(=O)O)sc2c1CCCC2 -43.4%
CN1CCN(CCCN2c3ccccc3Sc3ccc(C(F)(F)F)cc32)CC1 -34.1% and -42.7%
O=C(CN1CCN(c2ncc(C(F)(F)F)cc2Cl)CC1)NCCNc1ncc(C(F)(F)F)cc1Cl -48.5%
COc1ccc(CN(CC(O)COCc2ccccc2)S(=O)(=O)c2ccccc2Br)cc1 (stereo not given) -37.9%
Cc1cc(NC2CCCC2)n2ncc(-c3ccccc3)c2n1 -35.4%
CN=c1scc(-c2ccccc2F)n1/N=C/c1ccc[nH]1 -38.5%
COc1ccc(CN2CCC(CNS(=O)(=O)c3cccc(C(F)(F)F)c3)CC2)cc1 -37.9%
O=C(N=Nc1c(O)[nH]c2ccccc12)c1ccco1 -34.6%
O=C(COc1ccc(Cl)cc1Cl)Nc1cccnc1 -35.1%
N#Cc1ccc(-c2csc(NC(=O)c3cc(-c4cccs4)nc4ccccc34)n2)cc1 -41.3%
COc1cccc(CC2(CO)CCCN(Cc3sc(N4CCCC4)nc3Cl)C2)c1 (stereo not given) -44.8%
COc1ccc(Cl)cc1NC(=O)CCN1CCN(Cc2ccccc2)CC1 -36.2%

Activity change, active:
Cc1ccc(OCC(=O)N2CCN(c3nnc(-c4ccccc4)c4ccccc34)CC2)cc1 -72.8%
CCOC(=O)C1CCCN(S(=O)(=O)c2cc(OCC(N)=O)c(C)cc2Cl)C1 (stereo not given) -92.4%
NC(Cc1ccc(Cl)cc1)c1csc(Nc2cc(NCCCO)ncn2)n1 (stereo not given) -60.1%
Cc1ccc(S(=O)(=O)c2nc(S(C)(=O)=O)sc2N2CCCCCC2)cc1 -54.4%
CC(C)C[C@H]1CN=C(Nc2ccccc2)N1CCCC1CCCC1 -63.3%
O=C(NCCCn1ccnc1)c1nn2c(C(F)(F)F)cc(-c3ccc(Br)cc3)nc2c1Cl -52%
Cc1ccc(-n2c(O)c(/C=N/Nc3ccc(S(=O)(=O)N4CCOCC4)cc3[N+](=O)[O-])c3ccccc3c2=O)c(C)c1 -65.4%
COc1cc2c(cc1OC)CN(C(=S)Nc1ccccc1Cl)CC2 -61.1%
CCc1ccc(NC(=O)CSc2nc3ccccc3c(=O)n2CCCN2CCC(C)CC2)cc1 -99.9%
O=C(NCc1ccc(N2CCCC2=O)cc1)Nc1cccc(Cl)c1 -60.6%
OCC1(Cc2ccccc2C(F)(F)F)CCN(Cc2ccccc2)CC1 -61%
COc1ccc2sc(-c3ccc(S(C)(=O)=O)cc3)c(C#CCO)c2c1 -54.8%
C/C(=N\Nc1nc2ccccc2[nH]1)c1ccc(C)o1 -80.8%
NC1=NC[C@H](c2ccccc2)N1CC1CCCCC1 -53.7%
Cc1ccc(N(Cc2ccccc2)C(=O)c2ccc(S(=O)(=O)N3CCOCC3)cc2)cc1 -59.6%
COc1ccccc1CNC(=O)c1cc2c(C)nn(Cc3ccc(F)cc3)c2s1 -52%
